# Some of the results follow.
# What was measured:
# Assay in all cases: glycan array binding signal (z-score within array); higher = stronger binding
# Details in all cases: glycan notation: IUPAC condensed, linker removed
# [1] = molecular target: GlcNAc(b1-2)[GlcNAc(b1-4)]Man(a1-3)[GlcNAc(b1-4)][GlcNAc(b1-2)[GlcNAc(b1-6)]Man(a1-6)]Man(b1-4)GlcNAc(b1-4)GlcNAc
# How it was run: (§1)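 Negative Z-scores can be read as non-binding. The Z-score is calculated within each array and then averaged across arrays of one protein sequence at different concentrations or buffers and across linkers. Arrays, 3228 in all, were curated from the Consortium for Functional Glycomics database and kept only where the protein sequence was available.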
# [2] = molecular target: GlcNAc(b1-2)[GlcNAc(b1-4)]Man(a1-3)[GlcNAc(b1-4)][GlcNAc(b1-2)[GlcNAc(b1-6)]Man(a1-6)]Man(b1-4)GlcNAc(b1-4)[Fuc(a1-6)]GlcNAc
# How it was run: as §1
# [3] = molecular target: GlcNAc(b1-2)[GlcNAc(b1-6)]Man(a1-6)[GlcNAc(b1-2)Man(a1-3)]Man(b1-4)GlcNAc(b1-4)GlcNAc
# How it was run: as §1
# [4] = molecular target: GlcNAc(b1-2)[GlcNAc(b1-6)]Man(a1-6)[GlcNAc(b1-2)Man(a1-3)]Man(b1-4)GlcNAc(b1-4)[Fuc(a1-6)]GlcNAc
# How it was run: as §1
# [5] = molecular target: GlcNAc(b1-2)[GlcNAc(b1-6)]Man(a1-6)[GlcNAc(b1-4)][GlcNAc(b1-2)Man(a1-3)]Man(b1-4)GlcNAc(b1-4)GlcNAc
# How it was run: as §1
# [6] = molecular target: GlcNAc(b1-3)Fuc
# How it was run: as §1
# [7] = molecular target: GlcNAc(b1-3)Gal
# How it was run: as §1
# [8] = molecular target: GlcNAc(b1-3)Gal(b1-3)GalNAc
# How it was run: as §1
# [9] = molecular target: GlcNAc(b1-3)Gal(b1-4)Glc
# How it was run: as §1
# [10] = molecular target: GlcNAc(b1-3)Gal(b1-4)GlcNAc
# How it was run: as §1
# [11] = molecular target: GlcNAc(b1-3)Gal(b1-4)GlcNAc(b1-2)Man(a1-3)[GlcNAc(b1-3)Gal(b1-4)GlcNAc(b1-2)Man(a1-6)]Man(b1-4)GlcNAc(b1-4)GlcNAc
# How it was run: as §1
# [12] = molecular target: GlcNAc(b1-3)Gal(b1-4)GlcNAc(b1-2)Man(a1-3)[GlcNAc(b1-3)Gal(b1-4)GlcNAc(b1-2)Man(a1-6)]Man(b1-4)GlcNAc(b1-4)[Fuc(a1-6)]GlcNAc
# How it was run: as §1
# [13] = molecular target: GlcNAc(b1-3)Gal(b1-4)GlcNAc(b1-2)[GlcNAc(b1-3)Gal(b1-4)GlcNAc(b1-6)]Man(a1-6)[GlcNAc(b1-3)Gal(b1-4)GlcNAc(b1-2)Man(a1-3)]Man(b1-4)GlcNAc(b1-4)GlcNAc
# How it was run: as §1
# [14] = molecular target: GlcNAc(b1-3)Gal(b1-4)GlcNAc(b1-3)Gal(b1-4)GlcNAc
# How it was run: as §1
# [15] = molecular target: GlcNAc(b1-3)Gal(b1-4)GlcNAc(b1-3)Gal(b1-4)GlcNAc(b1-2)Man(a1-3)[GlcNAc(b1-3)Gal(b1-4)GlcNAc(b1-3)Gal(b1-4)GlcNAc(b1-2)Man(a1-6)]Man(b1-4)GlcNAc(b1-4)GlcNAc
# How it was run: as §1
# [16] = molecular target: GlcNAc(b1-3)Gal(b1-4)GlcNAc(b1-3)Gal(b1-4)GlcNAc(b1-2)Man(a1-3)[GlcNAc(b1-3)Gal(b1-4)GlcNAc(b1-3)Gal(b1-4)GlcNAc(b1-2)Man(a1-6)]Man(b1-4)GlcNAc(b1-4)[Fuc(a1-6)]GlcNAc
# How it was run: as §1
# [17] = molecular target: GlcNAc(b1-3)Gal(b1-4)GlcNAc(b1-3)Gal(b1-4)GlcNAc(b1-2)[GlcNAc(b1-3)Gal(b1-4)GlcNAc(b1-3)Gal(b1-4)GlcNAc(b1-6)]Man(a1-6)[GlcNAc(b1-3)Gal(b1-4)GlcNAc(b1-3)Gal(b1-4)GlcNAc(b1-2)Man(a1-3)]Man(b1-4)GlcNAc(b1-4)[Fuc(a1-6)]GlcNAc
# How it was run: as §1
# [18] = molecular target: GlcNAc(b1-3)Gal(b1-4)GlcNAc(b1-3)Gal(b1-4)GlcNAc(b1-3)Gal(b1-4)GlcNAc(b1-2)Man(a1-3)[GlcNAc(b1-3)Gal(b1-4)GlcNAc(b1-3)Gal(b1-4)GlcNAc(b1-3)Gal(b1-4)GlcNAc(b1-2)Man(a1-6)]Man(b1-4)GlcNAc(b1-4)GlcNAc
# How it was run: as §1
# [19] = molecular target: GlcNAc(b1-3)Gal(b1-4)GlcNAc(b1-3)Gal(b1-4)GlcNAc(b1-3)Gal(b1-4)GlcNAc(b1-2)Man(a1-3)[GlcNAc(b1-3)Gal(b1-4)GlcNAc(b1-3)Gal(b1-4)GlcNAc(b1-3)Gal(b1-4)GlcNAc(b1-2)Man(a1-6)]Man(b1-4)GlcNAc(b1-4)[Fuc(a1-6)]GlcNAc
# How it was run: as §1
# [20] = molecular target: GlcNAc(b1-3)Gal(b1-4)GlcNAc(b1-3)Gal(b1-4)GlcNAc(b1-3)Gal(b1-4)GlcNAc(b1-2)[GlcNAc(b1-3)Gal(b1-4)GlcNAc(b1-3)Gal(b1-4)GlcNAc(b1-3)Gal(b1-4)GlcNAc(b1-6)]Man(a1-6)[GlcNAc(b1-3)Gal(b1-4)GlcNAc(b1-3)Gal(b1-4)GlcNAc(b1-3)Gal(b1-4)GlcNAc(b1-2)Man(a1-3)]Man(b1-4)GlcNAc(b1-4)[Fuc(a1-6)]GlcNAc
# How it was run: as §1
# [21] = molecular target: GlcNAc(b1-3)Gal(b1-4)GlcNAc(b1-3)Gal(b1-4)GlcNAc(b1-3)Gal(b1-4)GlcNAc(b1-3)Gal(b1-4)GlcNAc(b1-2)Man(a1-3)[GlcNAc(b1-3)Gal(b1-4)GlcNAc(b1-3)Gal(b1-4)GlcNAc(b1-3)Gal(b1-4)GlcNAc(b1-3)Gal(b1-4)GlcNAc(b1-2)Man(a1-6)]Man(b1-4)GlcNAc(b1-4)GlcNAc
# How it was run: as §1
# [22] = molecular target: GlcNAc(b1-3)Gal(b1-4)GlcNAc(b1-3)Gal(b1-4)GlcNAc(b1-3)Gal(b1-4)GlcNAc(b1-3)Gal(b1-4)GlcNAc(b1-2)Man(a1-3)[GlcNAc(b1-3)Gal(b1-4)GlcNAc(b1-3)Gal(b1-4)GlcNAc(b1-3)Gal(b1-4)GlcNAc(b1-3)Gal(b1-4)GlcNAc(b1-2)Man(a1-6)]Man(b1-4)GlcNAc(b1-4)[Fuc(a1-6)]GlcNAc
# How it was run: as §1
# [23] = molecular target: GlcNAc(b1-3)Gal(b1-4)GlcNAc(b1-3)Gal(b1-4)GlcNAc(b1-3)Gal(b1-4)GlcNAc(b1-3)Gal(b1-4)GlcNAc(b1-2)[GlcNAc(b1-3)Gal(b1-4)GlcNAc(b1-3)Gal(b1-4)GlcNAc(b1-3)Gal(b1-4)GlcNAc(b1-3)Gal(b1-4)GlcNAc(b1-6)]Man(a1-6)[GlcNAc(b1-3)Gal(b1-4)GlcNAc(b1-3)Gal(b1-4)GlcNAc(b1-3)Gal(b1-4)GlcNAc(b1-3)Gal(b1-4)GlcNAc(b1-2)Man(a1-3)]Man(b1-4)GlcNAc(b1-4)[Fuc(a1-6)]GlcNAc
# How it was run: as §1
# [24] = molecular target: GlcNAc(b1-3)Gal(b1-4)GlcNAc(b1-3)Gal(b1-4)GlcNAc(b1-3)GalNAc
# How it was run: as §1
# [25] = molecular target: GlcNAc(b1-3)Gal(b1-4)GlcNAc(b1-3)GalNAc
# How it was run: as §1
# [26] = molecular target: GlcNAc(b1-3)Gal(b1-4)GlcNAc(b1-3)[GlcNAc(b1-3)Gal(b1-4)GlcNAc(b1-3)]GalNAc
# How it was run: as §1
# [27] = molecular target: GlcNAc(b1-3)Gal(b1-4)GlcNAc(b1-6)[Gal(b1-3)]GalNAc
# How it was run: as §1
# [28] = molecular target: GlcNAc(b1-3)Gal(b1-4)GlcNAc(b1-6)[GlcNAc(b1-3)Gal(b1-3)]GalNAc
# How it was run: as §1
# [29] = molecular target: GlcNAc(b1-3)Gal(b1-4)GlcNAc(b1-6)[GlcNAc(b1-3)]Gal(b1-4)GlcNAc
# How it was run: as §1
# [30] = molecular target: GlcNAc(b1-3)GalNAc
# How it was run: as §1
# [31] = molecular target: GlcNAc(b1-3)Man
# How it was run: as §1
# [32] = molecular target: GlcNAc(b1-3)[GlcNAc(b1-4)][GlcNAc(b1-6)]GlcNAc
# How it was run: as §1
# [33] = molecular target: GlcNAc(b1-3)[GlcNAc(b1-6)]Gal(b1-4)GlcNAc
# How it was run: as §1
# [34] = molecular target: GlcNAc(b1-3)[GlcNAc(b1-6)]GalNAc
# How it was run: as §1
# [35] = molecular target: GlcNAc(b1-4)Gal(b1-4)GlcNAc
# How it was run: as §1
# [36] = molecular target: GlcNAc(b1-4)GlcNAc
# How it was run: as §1
# [37] = molecular target: GlcNAc(b1-4)GlcNAc(b1-4)GlcNAc
# How it was run: as §1
# [38] = molecular target: GlcNAc(b1-4)GlcNAc(b1-4)GlcNAc(b1-4)GlcNAc(b1-4)GlcNAc
# How it was run: as §1
binder,measurement,setting,value
SP16663B-bot-321-25-321 (Bacteroides ovatus) (protein) DDDDEVTMNSKFYLSTKVFPVDSYEASLSVILKDNSVVVNELQPNYRFVACATERLSKDVKITADSDDNLVSAYNKANDTEYNILPAENYSFTNKTVTIENGESVSGDSIKIELLNVGSLTTEGGYLLPVTISSIEGNNLDALSSNRGVVYLKIQNIHVNVESGQPAEGTLIADRSGWTVKVAPTTRGDAKNLIDGTNSDVARDGGAEYWLTVDIGKVQTLTGIRNKCYASSYSPTAVEVFTSSDGAKWKSIGAVTISKSGTQYIKFSKAVETRYLKYYVKQGPNTVSLTEFDLYAK,glycan array binding signal (z-score),[1],-0.483
same,glycan array binding signal (z-score),[2],0.093
same,glycan array binding signal (z-score),[3],-0.273
same,glycan array binding signal (z-score),[4],-0.433
same,glycan array binding signal (z-score),[5],-0.138
same,glycan array binding signal (z-score),[6],-0.336
same,glycan array binding signal (z-score),[7],-0.642
same,glycan array binding signal (z-score),[8],0.266
same,glycan array binding signal (z-score),[9],0.252
same,glycan array binding signal (z-score),[10],-0.199
same,glycan array binding signal (z-score),[11],0.431
same,glycan array binding signal (z-score),[12],-0.057
same,glycan array binding signal (z-score),[13],0.821
same,glycan array binding signal (z-score),[14],-0.268
same,glycan array binding signal (z-score),[15],0.697
same,glycan array binding signal (z-score),[16],0.178
same,glycan array binding signal (z-score),[17],2.65
same,glycan array binding signal (z-score),[18],-0.233
same,glycan array binding signal (z-score),[19],-0.181
same,glycan array binding signal (z-score),[20],1.28
same,glycan array binding signal (z-score),[21],0.101
same,glycan array binding signal (z-score),[22],0.019
same,glycan array binding signal (z-score),[23],-0.29
same,glycan array binding signal (z-score),[24],-0.097
same,glycan array binding signal (z-score),[25],-0.536
same,glycan array binding signal (z-score),[26],0.951
same,glycan array binding signal (z-score),[27],-0.368
same,glycan array binding signal (z-score),[28],-0.352
same,glycan array binding signal (z-score),[29],-0.881
same,glycan array binding signal (z-score),[30],0.939
same,glycan array binding signal (z-score),[31],-0.23
same,glycan array binding signal (z-score),[32],-0.112
same,glycan array binding signal (z-score),[33],-0.06
same,glycan array binding signal (z-score),[34],0.065
same,glycan array binding signal (z-score),[35],-0.474
same,glycan array binding signal (z-score),[36],0.392
same,glycan array binding signal (z-score),[37],-0.474
same,glycan array binding signal (z-score),[38],-0.415
